In PubChem BioAssay AID624296 (National Center for Advancing Translational Sciences (NCATS), 2012):
About 9,900 (2.8%) of roughly 350,000 compounds were called active. Inconclusive results, whose numbers are uncertain, are shown with a selection of clear calls. Calls follow the shape of the dose curve; as a rule, active = well fitted activation curve with a large enough effect; inconclusive = small, poorly fitted or top-dose-only effect; inactive = no such curve, though single readings can be large or run the other way. No potency is given beside an inconclusive call; the fits are too rough.

Assay: A quantitative high throughput screen for small molecules that induce DNA re-replication in MCF 10a normal breast cells. Also: nearly all actives have a fitted effect of over 50% in size. As to activity, positive = re-replication: % of control where 0% means no effect.
Settings: MCF 10A DNA re-replication, Hoechst nuclear intensity, 48 h; activity, positive = re-replication: at 46.1 µM (top of the series)
Potency is read from the fitted curve at half-maximal effect; tags tell the direction and shape of the fitted curve.

SMILES	Potency	activity, positive = re-replication
Cc1cc(-c2nnc(-c3ccccc3)c(-c3ccccc3)n2)c(C)o1	inconclusive [activator, partial curve]	
O=C(NCc1ccccc1)C1CCCN1C(=O)Nc1ccccc1[N+](=O)[O-] (centres undefined)		inactive: -3.65%
Cc1cc(C)c2c(N)c(-c3nnc(SCc4ccc(Cl)cc4)n3C)sc2n1		inactive: -3.04%
CC1CC(C)CN(C(=O)c2cccc(S(=O)(=O)N3c4ccccc4CC3C)c2)C1 (centres undefined)	inconclusive [activator, partial curve, poor fit]	
Cc1ccccc1CN1CCN(CCCc2ccccc2)C(CCO)C1 (centres undefined)	inconclusive [activator, partial curve]	
CC1(C)C2CCC1(CS(=O)(=O)NCc1ccc(Cl)cc1Cl)C(=O)C2 (centres undefined)	inconclusive [activator, partial curve, poor fit]	
O=C(Nc1ccc([N+](=O)[O-])cc1)N1CCc2ccccc2C1	inconclusive [activator, single point]	
COCCCN1C(=O)c2ccc(C(=O)OCC(=O)NCc3ccccc3OC)cc2C1=O	inconclusive [activator, single point]	
COc1ccc2[nH]c3c(c2c1)CCN1C(=O)N([C@@H](C)C(=O)NCCc2ccc(F)cc2)C(=O)[C@]31C	inconclusive [activator, partial curve, poor fit]	
Cc1c(C(=O)N2CCN(C(c3ccccc3)c3ccccc3)CC2)oc2ccccc12		inactive: 11%
O=C(Nc1ccc(N2CCCCC2)cc1)c1ccc2ccccc2n1	inconclusive [activator, partial curve, poor fit]	
CCn1nccc1C(=O)Nc1ccc(C)c(C)c1		inactive: 5.87%
COc1cccc(-c2csc(N3CCN(S(=O)(=O)c4ccc(F)cc4)CC3)n2)c1	inconclusive [activator, full curve, poor fit]	
CCN(CC(=O)Nc1c(F)cccc1F)C(=O)c1ccc(N2CCCCC2)c([N+](=O)[O-])c1		inactive: 5.95%
CCn1c(SCC(=O)N/N=C/c2ccc(C)o2)nnc1-c1ccc(C(C)(C)C)cc1	inconclusive [activator, full curve, poor fit]	
COCCNC(=O)c1cc(-c2ccc(-c3ccccc3)cc2)nc2ccccc12	inconclusive [activator, partial curve, poor fit]	
CCOC(=O)/C=C/COc1ccccc1[N+](=O)[O-]	inconclusive [activator, partial curve, poor fit]	
CCOc1ccc(-n2c(SCc3nc(-c4ccc(C)cc4)no3)nnc2-c2ccncc2)cc1	inconclusive [activator, partial curve, poor fit]	
COc1cc(CNn2cn[nH]c2=S)cc(Br)c1OCc1ccccc1F	inconclusive [activator, full curve, poor fit]	
C=CCOC(=O)C1=C[C@H](C2CCCCC2)[C@@H](CCCO)[C@H](OCC)O1	inconclusive [activator, full curve, poor fit]	
O=P(c1ccccc1)(c1ccccc1)c1nc(-c2ccccc2)oc1N1CCOCC1		inactive: 5.22%
O=C(c1snnc1-c1ccccc1)N1CCOCC1	active: 0.651 µM	
COc1cc(OC)cc(C(=O)N/N=C(\C)CC(=O)Nc2ccccn2)c1	inconclusive [activator, single point]	

SMILES	Potency	activity, positive = re-replication
NS(=O)(=O)c1ccc(NNC(=O)c2sccc2Cl)cc1	inconclusive [activator, partial curve]	
Nc1nonc1-n1nnc(C(=O)N/N=C/c2ccccc2Cl)c1COc1ccc(F)cc1		inactive: 8.62%
COC(=O)c1c(-c2ccc(OC)cc2)sc2cc3c(cc12)OCO3	inconclusive [activator, full curve, poor fit]	
CNC[C@H](CC1CCCCC1)NC[C@H](CO)NCCc1cccc(C(F)(F)F)c1	inconclusive [activator, full curve, poor fit]	
Cc1cc(Cl)ccc1OC(C)C(=O)Nc1ccccc1N1CCOCC1 (centres undefined)	inconclusive [activator, partial curve]	
Fc1ccc2[nH]c3c(N4CCSCC4)ncnc3c2c1	inconclusive [activator, single point]	
Cc1ccc2c(CN(C)Cc3cccc(Cl)c3)cc(=O)oc2c1C	active: 20.6 µM	
O=C(Nc1cccc([N+](=O)[O-])c1)c1cc2ccccc2cc1O	inconclusive [activator, partial curve, poor fit]	
CCCCN(C(=O)C1=NN(c2ccccc2)C(=O)CC1)c1c(N)n(CC(C)C)c(=O)[nH]c1=O	inconclusive [activator, single point]	
C/C(=N\NC(=O)COc1cccc(Br)c1)c1ccc2c(c1)OCCO2		inactive: -3.04%
CCCn1nnnc1NCc1ccc(N(CC)CC)cc1		inactive: -1.3%
O=C1N/C(=N\N=C\c2cccnc2)SC1Cc1ccc(SC(F)F)cc1 (centres undefined)	inconclusive [activator, partial curve, poor fit]	
Cn1nccc1/C=C(/C#N)S(=O)(=O)c1ccccc1	inconclusive [activator, single point]	
Clc1ccc(CSc2ncccn2)cc1		inactive: 6.59%
CCOC(=O)Cc1ccc(NC(=O)c2ccc([N+](=O)[O-])cc2)cc1	inconclusive [activator, partial curve, poor fit]	
CCCCCCN=C(C)c1ccccc1O		inactive: 3.4%
C#CCOCCOCCOCCNc1nc(N2CCN(C(=O)CCCCCCCCCCNC(=O)[C@H]([C@@H](C)CC)n3cc(CCCCCN)nn3)CC2)nc(N2CCN(C(=O)CCCCCCCCCCNC(=O)[C@@H]([C@H](C)O)n3cc(C)nn3)CC2)n1	inconclusive [activator, single point]	
Cc1cccc(OCCNC(=O)c2ccc(Cl)c(S(=O)(=O)NCc3cccnc3)c2)c1	active: 5.8 µM	
O=C(Nc1nc2c(F)cccc2s1)c1ccc([N+](=O)[O-])o1	inconclusive [activator, single point]	
COc1ccc(-c2cc3nc(-c4ccccc4)cc(N4CCC(O)CC4)n3n2)cc1		inactive: 17.8%
COc1ccccc1C1C(C(=O)c2cc3ccccc3o2)=C(O)C(=O)N1c1cc(C)on1 (centres undefined)	inconclusive [activator, single point]	
O=C(Oc1ccc2c(=O)c(Cl)coc2c1)c1cccnc1	inconclusive [activator, partial curve, poor fit]	
COc1ccccc1NC(=O)Cc1csc(NC(=S)Nc2ccccc2)n1	inconclusive [activator, single point]	

SMILES	Potency	activity, positive = re-replication
COc1ccccc1/C=C1\SC(=S)N(CCC(=O)Nc2ccc(C(=O)O)c(O)c2)C1=O	inconclusive [activator, single point]	
CC1CCCCN1S(=O)(=O)c1ccc(NC(=O)c2cccs2)cc1 (centres undefined)	active: 20.6 µM	
Cc1cc(C(F)(F)F)nn1-c1nc(-c2ccco2)cc(C(F)(F)F)n1		inactive: -6%
COc1ccc(C2C(C(=O)c3ccco3)=C(O)C(=O)N2CC2CCCO2)cc1 (centres undefined)	inconclusive [activator, single point]	
O=C(NCC(c1ccc(F)cc1)N1CCOCC1)c1ccc([N+](=O)[O-])o1 (centres undefined)	active: 18.4 µM	
Cc1ccc2c(c1)c1nc3ccccc3nc1n2CCN1CCOCC1	inconclusive [activator, partial curve, poor fit]	
COc1ccc(C(=O)NCCCN2CCOCC2)cc1		inactive: 8.68%
COc1ccc(-n2cc(CNCCN3CCOC3=O)c(-c3ccccc3Cl)n2)cc1		inactive: 6.93%
Cc1ccc(OCCCCN2CCc3ccccc3C2)cc1	active: 14.6 µM	
COc1ccc(/C=N/OCC(=O)N2CC3(C)CC2CC(C)(C)C3)cc1 (centres undefined)		inactive: 1.67%
O=C(CNC(=O)/C(=C\c1ccc(F)cc1)NC(=O)c1ccccc1)OCc1ccccc1	inconclusive [activator, single point]	
COc1cc(-c2noc(CCCC(=O)NCc3ccccc3)n2)cc(OC)c1OC		inactive: 2.99%
COc1cc2[nH]c3c(N4CCN(c5ccccn5)CC4)ncnc3c2cc1OC	inconclusive [activator, single point]	
O=C(Nc1ccc2ncccc2c1)Nc1ccc2ncccc2c1		inactive: -5.24%
Cc1nc(NCc2ccco2)c2c3c(sc2n1)CCC3		inactive: 0.91%
COc1ccc(-c2nc3c4ccccc4ccn3c2CN2CCOCC2)cc1OC	inconclusive [activator, partial curve, poor fit]	
CC(C)c1ccc(/C=C(/C#N)c2nnc(NC(=O)c3ccccc3)s2)cc1	inconclusive [activator, single point]	
Cc1c(C(=O)NCCO)[n+](=O)c2ccccc2n1[O-]		inactive: 0.271%
COc1ccc(S(=O)(=O)N2CCN(c3ccc(F)cc3)CC2)cc1C(=O)N1CCCC1		inactive: -1.75%
Cc1cc(NC(=O)c2ocnc2C)no1	inconclusive [activator, single point]	
CSc1ccccc1NC(=O)c1noc2c1CCC2	inconclusive [activator, single point]	
CCn1c(=O)c2cc(C(=O)N(C)c3cc(C)ccc3OC)sc2c2ccccc21	inconclusive [activator, single point]	
CSc1nc2ccccc2n1Cc1c(Cl)cccc1Cl	inconclusive [activator, partial curve, poor fit]	
